Experimental data from PubChem BioAssay AID686978 (National Center for Advancing Translational Sciences (NCATS), 2013).
“And” between values parts separate entries of the source, which are not always exact repeats. Equal values may be shown once. Among all 420,000 compounds or so, about 64,000 (15%) were called active. Inconclusive results, whose numbers are uncertain, are shown with a selection of clear calls. Calls follow the shape of the dose curve; as a rule, active = well fitted inhibition curve with a large enough effect; inconclusive = small, poorly fitted or top-dose-only effect; inactive = flat fitted curve, though single readings scatter. Where the call is inconclusive, the potency comes from a doubtful curve fit.

Experiment: qHTS for Inhibitors of human tyrosyl-DNA phosphodiesterase 1 (TDP1): qHTS in cells in absence of CPT; also: nearly all actives have a fitted effect of over 55% in size
Conditions: DT40 Tdp1-/- hTDP1 cells, no CPT, ATP luminescence, 48 h; activity change, negative = growth inhibition: at 46.2 µM (top of the series) unless noted
How it was run: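 Cells were dispensed at 400 per well, compounds added by pin tool, plates incubated ≥48 hr at 37 °C, then CellTiter-Glo added for 30 min at room temperature before luminescence reading. Line: DT40 Tdp1-/- complemented with hTDP1; camptothecin omitted.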
% is scaled to controls: 0 for no effect and ±100 for the full control effect; potency is read from the fitted curve at half-maximal effect; tags tell the direction and shape of the fitted curve.

Row | Structure (SMILES) | activity change, negative = growth inhibition | Potency
1 | N#Cc1ccc(S(=O)(=O)NCC(=O)OCC(=O)NCCc2ccccc2)cc1 | inactive: 19.7% | 
2 | COc1cc2c(-c3ccc(O)cc3)nc3c(c(C)nn3-c3ccccc3)c2cc1OC |  | active: 18.4 µM
3 | COc1ccccc1OP(=O)(O)Oc1ccccc1OC | inactive: -5.49% | 
4 | CS/C(=N\S(=O)(=O)c1cccs1)Nc1cccc(Cl)c1C |  | inconclusive: 18.4 µM [inhibitor, single point]
5 | O=C(c1ccccc1F)N1CCC2CC1c1cc(N3CCCCC3)ccc12 (centres undefined) |  | active: 18.4 µM
6 | CCOc1cc(-c2noc(-c3cccnc3)n2)ccc1OC |  | inconclusive: 18.4 µM [inhibitor, single point]
7 | COc1ccc2cc3c(N)c(C(=O)NCc4ccco4)sc3nc2c1 |  | inconclusive: 29.1 µM [inhibitor, single point]
8 | CCc1ccc(N2CN(CCc3ccccc3)CNC2=S)cc1 |  | active: 29.1 µM
9 | CCOc1ccc(NC(=O)c2cc3c(s2)-c2ccccc2OC3)cc1 |  | inconclusive: 29.1 µM [inhibitor, single point]
10 | O=C(COC(=O)C12CC3CC(CC(Br)(C3)C1)C2)Nc1cccnc1Cl | inactive: 0.552% | 
11 | COc1ccc(SC[C@H](Cc2ccccc2)N2CC[C@@H](O)CCC2=O)cc1 |  | inactive and inconclusive: 20 µM [inhibitor, single point]
12 | Cc1cccc(NC(=O)C(Cc2ccccc2)n2cccc2)c1C (centres undefined) |  | active: 14.6 µM
13 | COc1cc2c(cc1OC)C(COc1ccccc1OC)N(C(=O)C(C)(C)C)CC2 (centres undefined) |  | inconclusive: 0.651 µM [inhibitor, full curve, poor fit]
14 | CC(=O)Oc1ccc(/C=N/NS(=O)(=O)c2ccc(C)cc2)c(OC(C)=O)c1 | inactive: 2.73% | 
15 | COc1cccc(C(=O)O/N=C(\N)c2ccccn2)c1 |  | inconclusive: 25.9 µM [inhibitor, single point]
16 | Oc1ccc(CCc2n[nH]c(=S)n2-c2ccc(F)cc2)cc1 | inactive: -3.93% | 
17 | O=C(O)/C=C/c1cccc(B(O)O)c1 | inactive: 14.4% | 
18 | COc1cccc(C2=NOC(C(=O)Nc3cc(C)nn3-c3ccccc3)C2)c1OC (centres undefined) |  | inconclusive: 29.1 µM [inhibitor, single point]
19 | O=C(CSc1nc2ncc(Br)cc2[nH]1)c1cccc([N+](=O)[O-])c1 | inactive: -16.3% | 
20 | O=C(NCc1cccnc1)/C(=C\c1ccc(-c2ccc(Cl)c(Cl)c2)o1)S(=O)(=O)c1ccccc1 |  | active: 4.61 µM
21 | NC(=O)CC[C@H](NC(=O)[C@H](Cc1ccccc1)n1c(=O)[nH]c2ccccc2c1=O)C(=O)N1CCC[C@H]1C(=O)O | inactive: -11.6% | 
22 | O=C(Nc1nnc(S(=O)(=O)N2CCCCCC2)s1)c1ccccc1Cl |  | inactive
23 | COc1ccccc1Cc1nc2ccccc2nc1SCC(=O)N1CCc2ccccc21 |  | inconclusive: 6.51 µM [inhibitor, partial curve]
24 | COc1ccc(Nc2nc(N3CCCC3)nc3ccccc23)c(OC)c1 |  | inconclusive: 29.1 µM [inhibitor, single point]
25 | COc1ccc(Cl)cc1S(=O)(=O)N1CCCC(C(=O)NCc2ccccc2)C1 (centres undefined) |  | inconclusive: 29.1 µM [inhibitor, single point]

Row | Structure (SMILES) | activity change, negative = growth inhibition | Potency
26 | Cc1cccc(-c2nc(CSCC(=O)N3CCN(c4ccccc4)CC3)c(C)o2)c1 |  | inconclusive: 20.6 µM [inhibitor, single point]
27 | Cc1ccc(-n2nc(C(=O)N3CCOCC3)cc2-c2ccc(Cl)cc2)cc1 |  | inconclusive: 20.6 µM [inhibitor, single point]
28 | Cc1ccc(C(=O)CNc2cccc(Cl)c2)cc1 |  | inconclusive: 29.1 µM [inhibitor, single point]
29 | CCN(CC)C(=O)Oc1ccc2ccccc2c1Br |  | inconclusive: 16.4 µM [inhibitor, single point]
30 | Nc1nc2ccccc2n1CCOc1ccccc1Cl |  | active: 25.9 µM
31 | Cc1ccc(NC(=O)Nc2cccn(Cc3c(F)cccc3Cl)c2=O)cc1 |  | inconclusive: 18.4 µM [inhibitor, single point]
32 | O=C(c1ccc2oc(CCCc3ccccc3)nc2c1)N1CCCC1 |  | inconclusive: 20.6 µM [inhibitor, single point]
33 | CCn1c(O)c(/C=C/C=C/C=Nc2ccccc2)sc1=S |  | active: 25.9 µM
34 | Cc1cccc(N2CCN(C(=O)Cn3cnc4sc(C)c(S(=O)(=O)N5CCN(c6ncccn6)CC5)c4c3=O)CC2C)c1 (centres undefined) |  | active: 14.6 µM
35 | COc1ccc(C2=NO[C@@H]3C(=O)N(c4ccc5c(c4)OCCO5)C(=O)[C@H]23)cc1OC | inactive: -6.26% | 
36 | S=C1SCN(Cc2ccccc2)CN1Cc1ccco1 |  | inconclusive: 29.1 µM [inhibitor, single point]
37 | c1ccc2c(c1)ncn2CCOCCOCCn1cnc2ccccc21 |  | inconclusive: 29.1 µM [inhibitor, single point]
38 | COC(=O)C1CCN(Cc2ccc3c(c2)CN(C(=O)c2ccc4nc(C)c(C)nc4c2)CCO3)CC1 | inactive: -15.8% | 
39 | O=C1CCN(S(=O)(=O)c2ccccc2)C2CCCCC12 (centres undefined) |  | inconclusive: 2.91 µM [inhibitor, full curve, poor fit]
40 | CC(=O)COc1cccc2ccc(/C=C/c3ccc(Br)s3)nc12 |  | inconclusive: 29.1 µM [inhibitor, single point]
41 | OC(c1ccc(F)cc1)c1nc(-c2csc3ccccc23)cs1 (centres undefined) |  | active: 25.9 µM
42 | O=C1COc2ccc(C(=O)CSc3nnc(Cc4ccccc4)o3)cc2N1 | inactive: 4.22% | 
43 | CCC(C)NC(=O)C1CCN(C(=O)c2ccc(-n3ccc4ccccc43)s2)CC1 (centres undefined) |  | inconclusive: 20.6 µM [inhibitor, single point]
44 | CCOC(=O)c1ccc(NC(=O)CSc2nccn2-c2ccc(OCC)cc2)cc1 |  | inconclusive: 29.1 µM [inhibitor, single point]
45 | COC(=O)[C@@]1(C(C)C)N=C(c2cc(OC)c(OC)c(OC)c2)[C@]2(O1)C(=O)N(C)c1ccc(Br)cc12 |  | inconclusive: 29.1 µM [inhibitor, single point]
46 | O=C1CC(/C=C/c2cccnc2)=Nc2ccccc2N1 |  | active: 16.4 µM
47 | COCCN(C)C(=O)c1cnn(-c2nccc(-c3cc(C)sc3C)n2)c1C | inactive: -14.6% | 
48 | COc1cc(S(=O)(=O)N2CCCC2)c(C)cc1C |  | inconclusive: 29.1 µM [inhibitor, single point]
49 | O=c1c2cc(F)ccc2[nH]c(=S)n1Cc1ccc(F)cc1 |  | inconclusive: 29.1 µM [inhibitor, single point]
50 | Cc1nonc1OCCN1CCN(c2ccc([N+](=O)[O-])cc2)CC1 |  | inconclusive: 25.9 µM [inhibitor, single point]

Row | Structure (SMILES) | activity change, negative = growth inhibition | Potency
51 | COc1ccccc1-c1c(C)nn2c(N3CCC4(CC3)OCCO4)cc(C)nc12 |  | inconclusive: 29.1 µM [inhibitor, single point]
52 | CCCCn1c(SCC(=O)OCC)nc2c1c(=O)[nH]c(=O)n2C | inactive: -2.49% | 
53 | COc1ccc(Nc2nc(NCCN3CCOCC3)nc(Nc3ccc(OC)cc3)n2)cc1 |  | active: 14.1 µM
54 | O=C1C(=O)c2ccccc2C(O)=C1CC=C(Cl)Cl |  | inconclusive: 20.6 µM [inhibitor, single point]
55 | COc1ccc(CNC(=O)COC(=O)c2ccc(OCC3CCCO3)cc2)cc1 (centres undefined) |  | inconclusive: 29.1 µM [inhibitor, single point]
56 | COc1ccccc1NC(=O)COc1ccc(/C=N/n2cnnc2)cc1OC | inactive: -12.2% | 
57 | CCOc1ccc(-n2c(=O)c3sccc3n(CC(=O)NC3CCCCC3)c2=O)cc1 | inactive: -12.8% | 
58 | COc1cccc(N(CC(=O)NC2CCCCC2)C(=O)CCC(=O)Nc2nccs2)c1 |  | inconclusive: 29.1 µM [inhibitor, single point]
59 | COc1cc([N+](=O)[O-])ccc1NC(=O)N1CCN(c2cc(-c3noc(C)n3)ccc2C)CC1 |  | inconclusive: 0.92 µM [inhibitor, full curve, poor fit]
60 | CCCn1ccc2c(OCC(=O)Nc3ccc(NC(C)=O)cc3)cccc2c1=O |  | inconclusive: 0.651 µM [inhibitor, partial curve]
61 | N=c1n(CCN2CCCCC2)c2ccccc2n1CC(O)c1ccco1 (centres undefined) | inactive: -27% | 
62 | COCCN(C(=O)COC(=O)/C=C/c1ccc(SC)cc1)c1c(N)n(Cc2ccccc2)c(=O)[nH]c1=O | inactive: -4.19% | 
63 | Cc1ccc(C(=O)Nc2ccc(Nc3ccccc3)cc2)cc1Br |  | active: 4.11 µM
64 | Cc1ccc(CNC(=O)COC(=O)c2ccccc2OCC(=O)Nc2ccc(Br)cc2)cc1 | inactive: -10.5% | 
65 | O=C(O)C(SC(C(=O)O)c1ccccc1)c1ccccc1 (centres undefined) |  | inconclusive: 18.4 µM [inhibitor, single point]
66 | CCN(Cc1ccncc1)Cc1ccc(OC)cc1OC |  | inconclusive: 6.51 µM [inhibitor, full curve]
67 | COc1ccc(/C=N/NC(=O)CNC(=O)c2ccc(S(=O)(=O)N3CCCC3)cc2)c(OC)c1 | inactive: -2.19% | 
68 | Cc1cc(Sc2nnc(/N=C/N(C)C)s2)c2ccccc2n1 |  | active: 7.31 µM
69 | C[C@H]1CN([C@@H](C)CO)C(=O)Cc2cc(NS(=O)(=O)c3ccc(Cl)cc3)ccc2O[C@@H]1CN(C)C(=O)Nc1cccc2ccccc12 | inconclusive: -30.1% [inhibitor] | 
70 | CCOC(=O)N/N=C(\C)c1ccccc1OC(F)F | inactive: -3.05% | 
71 | CCOC(=O)c1cccc(NC(=O)N2CCC(CN3CCc4ccccc4C3)CC2)c1 |  | inconclusive: 29.1 µM [inhibitor, single point]
72 | O=C(N/N=C/c1cccc([N+](=O)[O-])c1)C1CC1c1ccccc1 (centres undefined) | inactive: -17.9% | 
73 | Cc1ccccc1OCC(=O)Nc1ccc(OCc2cc(=O)n3ccsc3n2)cc1 | inactive: -20.5% | 
74 | CCN(CC(=O)Nc1ccc(NC(C)=O)cc1)C(=O)CCCOc1ccc(C(C)(C)C)cc1 |  | active: 23.1 µM
